Experimental data: patent US20100260668A1 (published 2010)

How the values were obtained:
IGF1R = target: T1, IGF1R (UniProt P08069 31-1367, limits assumed); assay: flow cytometry on cells carrying the target, 2 ug/mL; C-terminal VD
T1 construct: whole, on cells; also called insulin-like growth factor receptor

IGF1R ECD [1] = target: T2, IGF1R ECD (UniProt P08069 31-935, limits assumed); assay: Direct Bind ELISA, antigen on plate; C-terminal VD
T2 construct: extracellular domain; Bought reagent

IGF1R ECD [2] = target: T2, IGF1R ECD; assay: Direct Bind ELISA, antigen on plate; N-terminal VD
IGF1 (IGF-I) = target: T3, IGF1 (IGF-I) (UniProt P05019 in part); assay: Direct Bind ELISA, antigen on plate; N-terminal VD; first value of IGF1/IGF2 cell
T3 construct: Bought reagent

IGF2 (IGF-2) = target: T4, IGF2 (IGF-2) (UniProt P01344 in part); assay: Direct Bind ELISA, antigen on plate; N-terminal VD; second value of IGF1/IGF2 cell
T4 construct: Bought reagent

FACS Geometric Mean C-terminal (IGF1R): 24.7
B1: DVD031 (bispecific antibody, human IgG1, kappa)
heavy: [omitted - about 120 residues]ASTKGPEVQLLESGGGLVQPGGSLRLSCTASGFTFSSYAMNWVRQAPGKGLEWVSAISGSGGTTFYADSVKGRFTISRDNSRTTLYLQMNSLRAEDTAVYYCAKDLGWSDSYYYYYGMDVWGQGTTVTVSS[omitted - human IgG1 constant region]
light: [omitted - about 100 residues]RTVAAPDIQMTQFPSSLSASVGDRVTITCRASQGIRNDLGWYQQKPGKAPKRLIYAASRLHRGVPSRFSGSGSGTEFTLTISSLQPEDFATYYCLQHNSYPCSFGQGTKLEIKRTVAAPSVFIFPPSDEQLKSGTASVVCLLNNFYPREAKVQWKVDNALQSGNSQESVTEQDSKDSTYSLSSTLTLSKADYEKHKVYACEVTHQGLSSPVTKSFNRGEC
notes: DVD-Ig; also called HER-2 and IGF1R DVD-Ig

EC50 (IGF1R ECD [1]): 171 nM
B2: DVD031 (HER-2 (seq. 1) and IGF1R DVD-Ig) (bispecific antibody, IgG1)
VH: [omitted - about 120 residues]ASTKGPEVQLLESGGGLVQPGGSLRLSCTASGFTFSSYAMNWVRQAPGKGLEWVSAISGSGGTTFYADSVKGRFTISRDNSRTTLYLQMNSLRAEDTAVYYCAKDLGWSDSYYYYYGMDVWGQGTTVTVSS
VL: [omitted - about 100 residues]RTVAAPDIQMTQFPSSLSASVGDRVTITCRASQGIRNDLGWYQQKPGKAPKRLIYAASRLHRGVPSRFSGSGSGTEFTLTISSLQPEDFATYYCLQHNSYPCSFGQGTKLEIKR
notes: HC vector V1 (wild-type hIgG1 constant), LC vector V2 (kappa constant); also called DVD031L

EC50 (IGF1R ECD [2]): 0.16 nM
B3: DVD032 (IGF1R and HER-2 (seq. 1) DVD-Ig) (bispecific antibody, IgG1)
VH: EVQLLESGGGLVQPGGSLRLSCTASGFTFSSYAMNWVRQAPGKGLEWVSAISGSGGTTFYADSVKGRFTISRDNSRTTLYLQMNSLRAEDTAVYYCAKDLGWSDSYYYYYGMDVWGQGTTVTVSSASTKGP[omitted - about 120 residues]
VL: DIQMTQFPSSLSASVGDRVTITCRASQGIRNDLGWYQQKPGKAPKRLIYAASRLHRGVPSRFSGSGSGTEFTLTISSLQPEDFATYYCLQHNSYPCSFGQGTKLEIKRTVAAP[omitted - about 100 residues]
notes: HC vector V1 (wild-type hIgG1 constant), LC vector V2 (kappa constant); also called DVD032H; DVD032L

EC50 (IGF1 (IGF-I)): 1.75 nM | EC50 (IGF2 (IGF-2)): 5.49 nM
B4: DVD030 (IGF1,2 and HER-2 (seq. 1) DVD-Ig) (bispecific antibody, IgG1)
VH: QVQLVQSGAEVKKPGASVKVSCKASGYTFTSYDINWVRQATGQGLEWMGWMNPNSGNTGYAQKFQGRVTMTRNTSISTAYMELSSLRSEDTAVYYCARDPYYYYYGMDVWGQGTTVTVSSASTKGP[omitted - about 120 residues]
VL: QSVLTQPPSVSAAPGQKVTISCSGSSSNIENNHVSWYQQLPGTAPKLLIYDNNKRPSGIPDRFSGSKSGTSATLGITGLQTGDEADYYCETWDTSLSAGRVFGGGTKLTVLGQPKAAP[omitted - about 100 residues]
notes: HC vector V1 (wild-type hIgG1 constant), LC vector V4 (lambda signal peptide, kappa constant); also called DVD030H; DVD030L

Each block holds one binder with its values, some of them ahead of it.
